# Assay results reported in PubChem BioAssay (NCATS).
# This list was built around the results that the source calls inconclusive (neither active nor inactive); the mix of calls is not that of the screen. For some of these results: Where the call is inconclusive, the potency comes from a doubtful curve fit. Activity calls are given as the source filed them. Calls follow the shape of the dose curve; as a rule, active = well fitted curve in the direction sought with a large enough effect; inconclusive = small, poorly fitted or top-dose-only effect, or another doubt; inactive = no such curve, though single readings can be large; an effect the other way counts as inactive or inconclusive.
# Assays:
# HeLa = assay: Primary qHTS to identify gynecologic anti-cancer compounds using libraries of approved drugs and bioactive compounds (AID 1345084); settings: Gynecologic cancer cell panel viability, ATPlite luminescence, 48 h; series mostly up to 57.5 µM; also: nearly all actives have a fitted effect of over 55% in size
# In short: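 48 h compound exposure at 37 C, 5% CO2; five-point qHTS. ATPlite luminescence readout of cell ATP.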
# [1] = Quantitative High-Throughput drug screen in 47 multiple myeloma cell lines against the NCATS MIPE library collection: KMM1_JCRB cell viability assay (AID 1918960); also: nearly all actives have a fitted effect of over 30% in size;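 as to viability (% of DMSO): 100% = DMSO-treated cells and 0% = medium-only wells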
# In short: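 ATP readout (CellTiter-Glo), 48 h drug incubation, 37 °C/5% CO2, 500 cells per well; normalisation to DMSO (100%) and media-only (0%) controls.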
# [2] = Quantitative High-Throughput drug screen in 47 multiple myeloma cell lines against the NCATS MIPE library collection: Karpas417_ECACC cell viability assay (AID 1918961); settings: Karpas417 myeloma viability, CellTiter-Glo ATP luminescence, 48 h; viability (% of DMSO): at 45.8 µM (top of the series)
# In short: (§1)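 Myeloma cell lines, 500 cells per well, exposed to MIPE 4.0 library compounds for 48 h at 37C, 5% CO2. Viability from ATP by CellTiter-Glo luminescence; normalised to DMSO (100%) and media-only (0%) wells.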
# [3] = Quantitative High-Throughput drug screen in 47 multiple myeloma cell lines against the NCATS MIPE library collection: KMS12PE_JCRB cell viability assay (AID 1918972); also: nearly all actives have a fitted effect of over 30% in size
# In short: as §1
# [4] = Quantitative High-Throughput drug screen in 47 multiple myeloma cell lines against the NCATS MIPE library collection: KMS20_JCRB cell viability assay (AID 1918973); settings: CellTiter-Glo ATP, 48 h; viability (% of DMSO): at 45.8 µM (top of the series); also: nearly all actives have a fitted effect of over 45% in size
# In short: (§2)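 CellTiter-Glo luminescence (ATP) after 48 h compound exposure, 37C/5% CO2; 500 cells/well; MIPE 4.0 approved/investigational drugs pinned in; DMSO = 100%, media only = 0% viability.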
# [5] = Quantitative High-Throughput drug screen in 47 multiple myeloma cell lines against the NCATS MIPE library collection: KMS21BM_JCRB cell viability assay (AID 1918974); settings: ATP luminescence, 48 h; viability: at 45.8 µM (top of the series)
# In short: as §2
# [6] = Quantitative High-Throughput drug screen in 47 multiple myeloma cell lines against the NCATS MIPE library collection: MMM1_PLB cell viability assay (AID 1918976); also: nearly all actives have a fitted effect of over 35% in size
# In short: (§3)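 500 cells/well per myeloma line exposed to pinned MIPE 4.0 compounds for 48 h at 37 °C, 5% CO2. Viability read as ATP by CellTiter-Glo luminescence, normalised to DMSO-only (100%) and media-only (0%) wells.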
# [7] = Quantitative High-Throughput drug screen in 47 multiple myeloma cell lines against the NCATS MIPE library collection: MOLP8_DSMZ cell viability assay (AID 1918977); settings: MOLP8 myeloma viability, CellTiter-Glo ATP luminescence, 48 h; viability (% of control): at 45.8 µM (top of the series); also: nearly all actives have a fitted effect of over 45% in size
# In short: as §3
# [8] = Quantitative High-Throughput drug screen in 47 multiple myeloma cell lines against the NCATS MIPE library collection: LP1_DSMZ cell viability assay (AID 1918982); also: nearly all actives have a fitted effect of over 35% in size
# In short: as §3
# [9] = Quantitative High-Throughput drug screen in 47 multiple myeloma cell lines against the NCATS MIPE library collection: KMS34_JCRB cell viability assay (AID 1918985); also: nearly all actives have a fitted effect of over 40% in size
# In short: as §3
# WaGa = assay: qHTS assay to identify novel small-molecules to repurpose for Merkel cell carcinoma treatment (AID 1296009); settings: MCC and control cell lines, CellTiter-Glo viability, 72 h; series mostly up to 46 µM; also: nearly all actives have a fitted effect of over 60% in size; as to activity change, negative = cytotoxicity: % is scaled to controls: 0 for no effect and ±100 for the full control effect
# In short: (§4)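 Cells were treated for 72 hr at 37 degree celsius with compounds in 8- or 11-point dose response. Viability was read by CellTiter-Glo luminescence, normalized to no-cell (cytotoxicity) and DMSO controls.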
# [10] = NS1 protein of Zika virus - qHTS assay to identify small molecule inhibitors in human HEK 293 cells (AID 1347053); also: nearly all actives have a fitted effect of over 55% in size
# In short: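 Inhibition of NS1 expression was scored in HEK 293 cells given compound 1 h ahead of MR766 virus (MOI = 0.5). Following 24 h at 37 C, two anti-NS1 antibodies generated a TR-FRET signal, scaled between uninfected and infected controls.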
# [11] = qHTS of pediatric cancer cell lines to identify multiple opportunities for drug repurposing: Primary screen for NB1643 cells (AID 1347099); also: nearly all actives have a fitted effect of over 50% in size
# In short: (§5)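 500-1,000 cells/well; 5 h pre-incubation 37 °C/5% CO2; compound pinned; 48 h; CellTiter-Glo, 15 min RT; luminescence. MIPE 11-pt from 0.78 nM, NPC 8-pt from 0.59 nM final. Bortezomib 2.3 µM final as positive control.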
# [12] = qHTS of pediatric cancer cell lines to identify multiple opportunities for drug repurposing: Primary screen for LAN-5 cells (AID 1347100)
# In short: (§6)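 Viability after 48 h compound treatment at 37C, 500-1,000 cells/well, read as ATP luminescence with CellTiter-Glo. Primary screens used 11-point (MIPE, 0.78 nM-46 µM) or 8-point (NPC, 0.59 nM-46 µM) final concentrations; follow-up screens used 11-point dilutions.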
# [13] = qHTS of pediatric cancer cell lines to identify multiple opportunities for drug repurposing: Primary screen for Rh18 cells (AID 1347102); also: nearly all actives have a fitted effect of over 65% in size
# In short: as §6
# UISO = assay: qHTS assay to identify novel small-molecules to repurpose for Merkel cell carcinoma treatment (AID 1296009); settings: MCC and control cell lines, CellTiter-Glo viability, 72 h; activity change, negative = cytotoxicity: at 46 µM (top of the series); also: nearly all actives have a fitted effect of over 60% in size; as to activity change, negative = cytotoxicity: % is scaled to controls: 0 for no effect and ±100 for the full control effect
# In short: as §4
# [14] = qHTS of pediatric cancer cell lines to identify multiple opportunities for drug repurposing: Primary screen for SJ-GBM2 cells (AID 1347091)
# In short: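 Viability measured as metabolically active cells via CellTiter-Glo luminescence following 48 hours of compound exposure, 11-point dilutions in confirmatory testing. 500-1,000 cells/well plated 5 hours before dosing; controls were DMSO and 2.3 µM bortezomib.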
# [15] = qHTS of pediatric cancer cell lines to identify multiple opportunities for drug repurposing: Primary screen for TC32 cells (AID 1347089); also: nearly all actives have a fitted effect of over 60% in size
# In short: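 Luminescent ATP read-out (CellTiter-Glo) of metabolically active TC32 cells after 48 h exposure. Concentration-response curves came from 11-point (MIPE, 0.78 nM–46 µM) or 8-point (NPC, 0.59 nM–46 µM) primary titrations; follow-up used 11 points.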
# [16] = qHTS of pediatric cancer cell lines to identify multiple opportunities for drug repurposing: Primary screen for Rh41 cells (AID 1347108); also: nearly all actives have a fitted effect of over 70% in size
# In short: as §5
# Potency is read from the fitted curve at half-maximal effect; tags tell the direction and shape of the fitted curve.
compound,measurement,setting,value
O=C(CSc1nc2c(c(=O)n1-c1ccccc1)SCC2)Nc1ccc(-c2ccccc2)cn1,Potency,HeLa,active: 0.158 µM
Cc1ccccc1N1C(=O)c2cc(S(N)(=O)=O)c(Cl)cc2NC1C (centres undefined),Potency,[1],inactive
same,Potency,[2],"inconclusive: 0.0047 µM [cytotoxic, full curve, poor fit]"
same,Potency,[3],"inconclusive: 0.209 µM [cytotoxic, full curve, poor fit]"
same,Potency,[4],inactive
same,Potency,[5],"inconclusive: 5.26 µM [cytotoxic, partial curve, poor fit]"
same,Potency,[6],"inconclusive: 5.26 µM [cytotoxic, full curve, poor fit]"
same,Potency,[7],"inconclusive: 5.26 µM [cytotoxic, partial curve, poor fit]"
same,Potency,[8],inactive
same,Potency,[9],inactive
same,Potency,WaGa,inactive
Cc1sc2c(c1C)C(c1ccc(Cl)cc1)=N[C@H](CC(=O)NCCCCNC(=O)COc1cccc3c1C(=O)N([C@H]1CCC(=O)NC1=O)C3=O)c1nnc(C)n1-2,Potency,HeLa,"inconclusive: 31.6 µM [cytotoxic, single point]"
O=C(Cc1ccc(-c2ccc(OCCN3CCOCC3)cc2)cn1)NCc1ccccc1,Potency,[10],active: 0.0743 µM
same,Potency,[11],active: 0.0833 µM
same,Potency,[12],active: 0.0093 µM
same,Potency,[13],active: 13.2 µM
same,Potency,[1],active: 0.0118 µM
same,Potency,[3],active: 0.0148 µM
same,viability (% of DMSO),[4],inconclusive: 9.23% [cytotoxic]
same,Potency,UISO,active: 0.0469 µM
same,Potency,WaGa,"inconclusive: 0.0296 µM [inhibitor, full curve]"
same,Potency,HeLa,active: 1.58 µM
Nc1ccn([C@H]2CC[C@@H](CO)O2)c(=O)n1,Potency,[1],inactive
same,Potency,[3],inactive
same,Potency,[4],"inconclusive: 23.5 µM [cytotoxic, single point]"
same,Potency,[6],"inconclusive: 0.0037 µM [rising, full curve]"
same,Potency,[7],inactive
same,Potency,[8],inconclusive: 0.001 µM
same,Potency,[9],inconclusive: 0.001 µM
CCN1CCC[C@H]1CNC(=O)c1cc(S(N)(=O)=O)ccc1OC,Potency,[10],inactive
same,Potency,[11],inactive
same,Potency,UISO,inactive
CCOC(=O)COc1ccc2c(C)c(CCN(CC)CC)c(=O)oc2c1Cl,Potency,[14],"inconclusive: 9.44 µM [cytotoxic, partial curve, poor fit]"
same,Potency,WaGa,"inconclusive: 21.1 µM [inhibitor, single point]"
CC1=C(C(=O)OC(C)C)C(c2cccc([N+](=O)[O-])c2)C(C(=O)OC2CN(C(c3ccccc3)c3ccccc3)C2)=C(N)N1 (centres undefined),Potency,[10],"inconclusive: 31.6 µM [inhibitor, single point]"
same,Potency,[15],"inconclusive: 29.7 µM [cytotoxic, single point]"
same,Potency,[14],"inconclusive: 29.9 µM [cytotoxic, single point]"
same,Potency,[11],"inconclusive: 29.9 µM [cytotoxic, single point]"
same,Potency,[12],"inconclusive: 33.5 µM [cytotoxic, single point]"
same,Potency,[13],"inconclusive: 29.9 µM [cytotoxic, single point]"
same,Potency,[16],"inconclusive: 18.8 µM [cytotoxic, single point]"
same,Potency,UISO,"inconclusive: 21.1 µM [inhibitor, single point]"
CCN(CC)C(=O)Nc1ccc(OCC(O)CNC(C)(C)C)c(C(C)=O)c1 (centres undefined),Potency,[15],inactive
O=C(CCCN1CC=C(n2c(=O)[nH]c3ccccc32)CC1)c1ccc(F)cc1,Potency,[15],"inconclusive: 33.3 µM [cytotoxic, single point]"
same,Potency,[12],"inconclusive: 37.6 µM [cytotoxic, single point]"
same,Potency,[16],"inconclusive: 16.8 µM [cytotoxic, partial curve]"
same,Potency,WaGa,"inconclusive: 33.5 µM [inhibitor, single point]"
same,Potency,HeLa,"inconclusive: 35.5 µM [cytotoxic, single point]"
Cc1cc(N)c2ccccc2[n+]1CCCCCCCCCC[n+]1c(C)cc(N)c2ccccc21,Potency,[10],"inconclusive: 11.2 µM [inhibitor, partial curve]"
